Assay results: paper PMC7819943, “Rice protein-binding microarrays: a tool to detect cis-acting elements near promoter regions in rice”
This is one part of the list.

Target: T1, OsWOX13 (Oryza sativa, UniProt Q5QMM3 1-267)
T1 sequence: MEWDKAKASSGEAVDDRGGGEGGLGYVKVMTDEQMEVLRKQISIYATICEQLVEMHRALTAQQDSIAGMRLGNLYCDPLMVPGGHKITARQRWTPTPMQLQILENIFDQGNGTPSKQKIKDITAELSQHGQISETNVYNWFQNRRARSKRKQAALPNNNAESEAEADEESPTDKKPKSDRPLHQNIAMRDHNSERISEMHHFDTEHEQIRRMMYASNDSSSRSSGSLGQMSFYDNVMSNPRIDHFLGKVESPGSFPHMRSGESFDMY
Experiment: protein-binding microarray (RPBM); PBS, 2% BSA, 51.3 ng/ul salmon testes DNA, 50 uM zinc acetate, 200 nM TF, 25 C, 1 h; high values mean tight binding
Conditions: protein: recombinant; tags: N-terminal polyhistidine and DsRed monomer fusion (pET32a); label: CyDye5-dUTP incorporated in the synthesized complementary strand; 3' TTTTT single-stranded linker to array surface; dsDNA, one strand shown
Summary of the method: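 The binding signal is fluorescence intensity per feature, in arbitrary units, read on an Axon 4000B scanner. Polyhistidine- and DsRed-tagged transcription factors (N-terminal fusions) from E. coli BL21-CodonPlus were purified on Ni–NTA and applied at 200 nM for 1 h at 25 °C to a double-stranded, BSA-blocked custom Agilent array in buffer with 50 µM zinc acetate.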

Sequence | binding signal
TGCACGGGTTAATTATGTGGCCGACAGTGGACGACTTTGTCGGAGTCACCTAGTGCAG | 3670 fluorescence intensity (a.u.)
ATAAATAAATAAAATTGAGCATATTATGAGCAGCTGTGATCGGAGTCACCTAGTGCAG | 6980 fluorescence intensity (a.u.)
TGGCTTTAGATTAATAGATAGATTAAACGTAGACTAATGACGGAGTCACCTAGTGCAG | 17200 fluorescence intensity (a.u.)
GGCAATCAATTATTAATTGATTAATTCCATGAATAGCACACGGAGTCACCTAGTGCAG | 64900 fluorescence intensity (a.u.)
ATATATATATATATAATAATTATATCACATATTTCTTGTTCGGAGTCACCTAGTGCAG | 3450 fluorescence intensity (a.u.)
TACAATTACAAGTCTATCTAGATTTATTATACTAGATTATCGGAGTCACCTAGTGCAG | 4260 fluorescence intensity (a.u.)
CTGTAACTGAGATTTTGAGAATAAGTGGAGCACAAGGGTGCGGAGTCACCTAGTGCAG | 5590 fluorescence intensity (a.u.)
GCCCCACATGTCAATCTCACCCTCCCTTCTTCCTCCTCTCCGGAGTCACCTAGTGCAG | 4320 fluorescence intensity (a.u.)
AACTCAATCAAACACCACTGGTCTCATAACGCTGCTGTCACGGAGTCACCTAGTGCAG | 5380 fluorescence intensity (a.u.)
CATTAATTAATTAGTACAACACCGAACGAAAAGAAGCGAACGGAGTCACCTAGTGCAG | 37100 fluorescence intensity (a.u.)
TGCGGATTGAAATCAAACTTCGCTAGATGCATTTGATTTGCGGAGTCACCTAGTGCAG | 25200 fluorescence intensity (a.u.)
GCTTGATTTGTACTACTATTTGGAATTTTAGCAGGTGACACGGAGTCACCTAGTGCAG | 42800 fluorescence intensity (a.u.)
AAGCGAATTGATGAAGGGAGGAAGGAGATGGAGAGAGTCGCGGAGTCACCTAGTGCAG | 8820 fluorescence intensity (a.u.)
ATTTACCGCAACTGTAATTGAGATGGTTTTGAGATTTCATCGGAGTCACCTAGTGCAG | 6850 fluorescence intensity (a.u.)
ACCGCAGTCTCCTTGCTGTGATTTGTTTGGCGTTTGCTTCCGGAGTCACCTAGTGCAG | 7280 fluorescence intensity (a.u.)
CTAAATTTACATTAGATATCTGTTTTGAATGGCGATTAAGCGGAGTCACCTAGTGCAG | 30900 fluorescence intensity (a.u.)
CATCGTAATGATTAAATTAAAGGAGAAGAAAAGGGTAAGACGGAGTCACCTAGTGCAG | 12700 fluorescence intensity (a.u.)
CAGATTAGATTGGTTGAGATTATTATTCTTGCGTGACAAGCGGAGTCACCTAGTGCAG | 40600 fluorescence intensity (a.u.)
CAAGGATAATTAAATTCATGATGGATGGATGAATTGTATACGGAGTCACCTAGTGCAG | 19700 fluorescence intensity (a.u.)
ATTTAATACTCTAAATTAGTGTTTAAATACAGGGACTAAACGGAGTCACCTAGTGCAG | 7520 fluorescence intensity (a.u.)
ATGATAATTTTATCCGCAAATTACTTACGGCTCCGGGAGACGGAGTCACCTAGTGCAG | 13900 fluorescence intensity (a.u.)

Sequence | binding signal
TCGATGACTTCAAACAAATTGTTAACGACGTGCCAGTAAACGGAGTCACCTAGTGCAG | 4530 fluorescence intensity (a.u.)
AAAGGGAGATTATTTATATTAATTCCTGCTTAGCTGCAAACGGAGTCACCTAGTGCAG | 4080 fluorescence intensity (a.u.)
CATGCTAAATTGAGACGATCGGATTCCAAACTTTAGCTCACGGAGTCACCTAGTGCAG | 13600 fluorescence intensity (a.u.)
ACTATGATTGTGCAGGACACTTGTAGGCCACAGGTAGTAGCGGAGTCACCTAGTGCAG | 28600 fluorescence intensity (a.u.)
TCCAATTGATTGCAAATCGATTCCTCACTCCTCTCTTATCCGGAGTCACCTAGTGCAG | 57400 fluorescence intensity (a.u.)
ACGACCTTAATTTAATAAACCGAGCCAACAATAAGTGAGCCGGAGTCACCTAGTGCAG | 9880 fluorescence intensity (a.u.)
ATCCATAATTGGTCGATGCAAAGTCAAAACACCAGCAAACCGGAGTCACCTAGTGCAG | 14400 fluorescence intensity (a.u.)
CAAAGTAATTAATTAGTGGATTGATAGAAGTTCAATCGACCGGAGTCACCTAGTGCAG | 37400 fluorescence intensity (a.u.)
GCTGAGCCTTGATTGTTTCTTCATAGCTCCTTCCTCTTTCCGGAGTCACCTAGTGCAG | 10000 fluorescence intensity (a.u.)
ACCTGAAATGATTGATGTCAGATCAATGCACTTTCATTATCGGAGTCACCTAGTGCAG | 24100 fluorescence intensity (a.u.)
TTGTAAAATTATATTTATTTAAGATGAAGGGAGTACTATCCGGAGTCACCTAGTGCAG | 4920 fluorescence intensity (a.u.)
TATTTCCTTATTAATTTATCATATAAATGGGTTTATGGGTCGGAGTCACCTAGTGCAG | 4500 fluorescence intensity (a.u.)
ACGCGCCGATTCCGAAGAAATCAATCAACCAACTACTAGGCGGAGTCACCTAGTGCAG | 4480 fluorescence intensity (a.u.)
GTCAATTCATATAATAATTATCTACAAATACATACTACACCGGAGTCACCTAGTGCAG | 5800 fluorescence intensity (a.u.)
AATGACAAAGTGGCTATGATTGCGTGTTTCATATTAGCATCGGAGTCACCTAGTGCAG | 18800 fluorescence intensity (a.u.)
TTAAACAGCTTAATATCAAAAGACACAAATACAACTGCATCGGAGTCACCTAGTGCAG | 8680 fluorescence intensity (a.u.)
AAATTACTAATTGAAAACTAAAAGTCCAAGATTTATTACGCGGAGTCACCTAGTGCAG | 36400 fluorescence intensity (a.u.)
AAAATTAAATAAGACAAATGATTAAAGTTGAATACGGAGACGGAGTCACCTAGTGCAG | 7100 fluorescence intensity (a.u.)
ATTCATGTACCTTTGCTTGTGATTGGCATTGACGTGAGAACGGAGTCACCTAGTGCAG | 7120 fluorescence intensity (a.u.)
AAAAGCTTTGATTTGAACAAACTTAGCCAAAGTTTTGGCACGGAGTCACCTAGTGCAG | 7900 fluorescence intensity (a.u.)
CATACACTCAATCAGAGAGAGATTGTTGGTAGCTAGGTAGCGGAGTCACCTAGTGCAG | 12200 fluorescence intensity (a.u.)

Sequence | binding signal
CCGTTTGGATTGACTTATCAACAGAGTGCTTCAATCTATACGGAGTCACCTAGTGCAG | 8190 fluorescence intensity (a.u.)
GATTGATAATTTCAGAACAGTCTCTTTTGTTCACTAGAGCCGGAGTCACCTAGTGCAG | 7610 fluorescence intensity (a.u.)
GAATTGATGGAATTTAGGCCGCCAGCAAGCAAAGACCGAGCGGAGTCACCTAGTGCAG | 13300 fluorescence intensity (a.u.)
GCTGTAAATTATATTTCCTGATCTTGTCAGTGCTGGTCTACGGAGTCACCTAGTGCAG | 20500 fluorescence intensity (a.u.)
TTTTGATTGAAGACACACCTATTGTCGCGAATACTGCTAACGGAGTCACCTAGTGCAG | 40500 fluorescence intensity (a.u.)
GCTATGATTTGACAATGCGATGCTACAGTAAACATTTGCTCGGAGTCACCTAGTGCAG | 21900 fluorescence intensity (a.u.)
TCAGAAATTGAATCCGATTAGGATTACTATTTGTAGGATCCGGAGTCACCTAGTGCAG | 14900 fluorescence intensity (a.u.)
CCGTTAGGGATATTGATTATCTTTTGTAACCCGGACTCCTCGGAGTCACCTAGTGCAG | 4300 fluorescence intensity (a.u.)
TCAGTATGTTAATTAATCAAACATGGGAAATAGCATGGAACGGAGTCACCTAGTGCAG | 17400 fluorescence intensity (a.u.)
TCCATCGACATGTGATTAATTTCCAAGTTAAAGTGTGAAGCGGAGTCACCTAGTGCAG | 10100 fluorescence intensity (a.u.)
GCTGATTGGCTCGCCATGGCTATAAATCTCGAGGTCGGTTCGGAGTCACCTAGTGCAG | 37200 fluorescence intensity (a.u.)
TGGATGATTTTAGTGATAGATTCTTTGTCCCGATACGAAACGGAGTCACCTAGTGCAG | 23900 fluorescence intensity (a.u.)
GTATAATTAATTAAGCAGTGAAGTGAATCGATCTGATTAACGGAGTCACCTAGTGCAG | 35800 fluorescence intensity (a.u.)
ATACATTTGCAATTTACTATAAATTTTGAAATATGTCCCTCGGAGTCACCTAGTGCAG | 5200 fluorescence intensity (a.u.)
ATCAAAATAAATTGACATATAATATGTCACTCCACCGATACGGAGTCACCTAGTGCAG | 8080 fluorescence intensity (a.u.)
TGAATGATTAAGATTTAAAGATGTCTTTTAGTGGATGGGACGGAGTCACCTAGTGCAG | 20200 fluorescence intensity (a.u.)
GCTTGACACCGATCCATTTGACGAGCTCGCATTTCCTTCACGGAGTCACCTAGTGCAG | 3260 fluorescence intensity (a.u.)
TGCTGATTGGCGCTCCCCACGTTGGCAAGATTAGGTGATCCGGAGTCACCTAGTGCAG | 39100 fluorescence intensity (a.u.)
ACCTATTATGATCGGTTTTGATTAGTTAAGAGATGCCCAGCGGAGTCACCTAGTGCAG | 8030 fluorescence intensity (a.u.)
CCAAATTAGCCAAATCATCATCGTCATCCGAGACTTGAGCCGGAGTCACCTAGTGCAG | 38400 fluorescence intensity (a.u.)
TAGCAATTACATGGAATGTTGAAGTCTTCTATTGCATTGTCGGAGTCACCTAGTGCAG | 5180 fluorescence intensity (a.u.)

Sequence | binding signal
TTCTAGTACCACTAATTTGCAGTCAAGCCTCCTGCCCTCTCGGAGTCACCTAGTGCAG | 5020 fluorescence intensity (a.u.)
CGCTGATGGAGTCAAATTGCACCGGTTTTAAGAGTTAGGGCGGAGTCACCTAGTGCAG | 28200 fluorescence intensity (a.u.)
AAATTAAATTAAATTAAATCGAACTGAATACTACATGTCGCGGAGTCACCTAGTGCAG | 33100 fluorescence intensity (a.u.)
GTTGAATGAATATATGATTTGTCACTGATGCTCACTACTACGGAGTCACCTAGTGCAG | 27600 fluorescence intensity (a.u.)
CTGAATTAATTATGGCTCGTCCAACCGCGCGTACTGTACTCGGAGTCACCTAGTGCAG | 30200 fluorescence intensity (a.u.)
ATTATATCCTTAACTGGGCCTGAACTCCAATCAACCCAACCGGAGTCACCTAGTGCAG | 3320 fluorescence intensity (a.u.)
GTTAATTACAACATTTCTTTGAGATCAGCTCAAATGGGTCCGGAGTCACCTAGTGCAG | 28100 fluorescence intensity (a.u.)
GACACCCATCCATCCGCCTCCTGCCTGCGCCGTCGGCCGACGGAGTCACCTAGTGCAG | 4140 fluorescence intensity (a.u.)
CATGGACTAGACTGTGATTAGAAGCTAGAACCGAAATAACCGGAGTCACCTAGTGCAG | 7470 fluorescence intensity (a.u.)
ATTATTTAATTTGTTGGATTGTGGCTTCCTTTCCTCTAAACGGAGTCACCTAGTGCAG | 19100 fluorescence intensity (a.u.)
CTGATCATCAATTTGGTTACTCTGCAGCTCACCGGCATTCCGGAGTCACCTAGTGCAG | 8200 fluorescence intensity (a.u.)
TAAATAATTTCCCCATACTCCTCTCACTTGCTGTGCGGCCCGGAGTCACCTAGTGCAG | 3680 fluorescence intensity (a.u.)
CATAATTATATGGGACAGTAAGGAACAATCCGTTGTTACTCGGAGTCACCTAGTGCAG | 19800 fluorescence intensity (a.u.)
GATTAATTAGATTTAATAAATTCATCTCGCAGTTTACAGGCGGAGTCACCTAGTGCAG | 62200 fluorescence intensity (a.u.)
TGGTCAATAGTTAATTATTCCGATGATCAAATATTACTAGCGGAGTCACCTAGTGCAG | 6140 fluorescence intensity (a.u.)
CGTAAATTATAGGGCGAGAAGATCATTGACATGCAAATTCCGGAGTCACCTAGTGCAG | 11700 fluorescence intensity (a.u.)
TAAGCAATTAATTGAATGTGGTTGAAAAGTTTGGCTCTTCCGGAGTCACCTAGTGCAG | 39500 fluorescence intensity (a.u.)
CATAATTATTTTCATCTGGAATTTTGTAGCAATAAACTGACGGAGTCACCTAGTGCAG | 18700 fluorescence intensity (a.u.)
TTTGATCAAAATCAAAACGTCTTATAACCTGAAACGGAGGCGGAGTCACCTAGTGCAG | 4210 fluorescence intensity (a.u.)
GTTAATAAGTAATGATCATGATTGATGGCGTAGATAGCTACGGAGTCACCTAGTGCAG | 42900 fluorescence intensity (a.u.)
ATACTACCTTCAATTATATTAATAGATAATGCCGTTGTCACGGAGTCACCTAGTGCAG | 11700 fluorescence intensity (a.u.)
